{
  "source": "the supplement of paper PMC11417369",
  "note": "± gives the standard deviation of the averaged measurements. The list shows a part of the results.",
  "data": [
    {"tested_on": "PfAP2-I AP2 domain 3 (GST-tagged)", "test": "gcPBM binding intensity (ln(normalized median fluorescence intensity)); higher = stronger DNA binding", "how_it_was_run": "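In this array assay, P. falciparum DNA-binding domains with a GST tag, expressed in E. coli, were applied for 1 h to primer-extended double-stranded 36-bp intergenic genomic probes and negative controls on an Agilent 4 × 180k array. Bound protein was visualised with Alexa488 anti-GST antibody at 488 nm. Binding intensity is the highest Masliner-normalised natural-log median intensity across replicate spots of either probe orientation.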", "values": [
      {"sequence": "ATATATCACAATAAAATTTATAGAATTTTAAATAAG [TGCATGCA_negctrl_site437]", "gcPBM binding intensity (ln)": "7.4 ± 0.61"},
      {"sequence": "CAATAAAGAGGGAATTGTACTTTAAATATCCCTCTT [XGTACX_site1991]", "gcPBM binding intensity (ln)": "7.61 ± 0.54"},
      {"sequence": "AAAATAAAATAAAATACACACATACATACATACAAA [CACACA_site5366]", "gcPBM binding intensity (ln)": "7.86 ± 0.45"},
      {"sequence": "AATATATTTCGAGATACACACATATATAAAAAAAAA [CACACA_site3398]", "gcPBM binding intensity (ln)": "7.86 ± 0.68"},
      {"sequence": "AAAAAAAAAAAAAAGACACACAATGTGAAATAATAA [CACACA_site804]", "gcPBM binding intensity (ln)": "8 ± 0.62"},
      {"sequence": "AATAGAACAAATAAAACACACACATATATATATATA [CACACA_site8893]", "gcPBM binding intensity (ln)": "9.32 ± 0.45"},
      {"sequence": "AAAAAAAAAAAAAAAGTGCACTGAAAATATATTGAA [GTGCAC_site9395]", "gcPBM binding intensity (ln)": "11 ± 0.2"},
      {"sequence": "TTTTTAATTATTTATATAACGATAATCCTTACATAA [TGCATGCA_negctrl_site180]", "gcPBM binding intensity (ln)": "7.59 ± 0.45"},
      {"sequence": "AACAAAAATGAAAAAACACACATAACATATATAAAT [CACACA_site740]", "gcPBM binding intensity (ln)": "7.83 ± 0.87"},
      {"sequence": "ATAATATAAATAAAAACACACACAATCGTACATATA [CACACA_site9223]", "gcPBM binding intensity (ln)": "7.92 ± 0.53"},
      {"sequence": "TATATAGAAAACAAGGCATGCAAATAACAAATTGTG [TGCATGCA_site473]", "gcPBM binding intensity (ln)": "8.32 ± 0.91"},
      {"sequence": "ATATAATATATGTAAGTGCGCTTATAAATAAAACGA [GTGCAC_site9841]", "gcPBM binding intensity (ln)": "8.98 ± 0.042"},
      {"sequence": "ATATATTGATATATGTGTACATAGCTTATTTCATTT [XGTACX_site1800]", "gcPBM binding intensity (ln)": "7.72 ± 0.53"},
      {"sequence": "AATATTTTAAATATTGCATGCAATGAAAAATGTAAA [TGCATGCA_site139]", "gcPBM binding intensity (ln)": "8.23 ± 0.64"},
      {"sequence": "TTTTAAAGAAAATATTTTATCATTATTTTTTGTACT [CACACA_negctrl_site1648]", "gcPBM binding intensity (ln)": "7.41 ± 0.57"},
      {"sequence": "TTTTAAAATTTTTTTTTTTTTTTTTTATGAACAAGT [GTGCAC_negctrl_site124]", "gcPBM binding intensity (ln)": "7.46 ± 0.13"},
      {"sequence": "TCTTATTTTTTTATATATACAAAGTTTTATATATAT [GTGCAC_negctrl_site314]", "gcPBM binding intensity (ln)": "7.82 ± 0.57"},
      {"sequence": "ATAGTAAATATAAAAAGTACTGATTCTTAAATTGTT [XGTACX_site5972]", "gcPBM binding intensity (ln)": "7.67 ± 0.6"},
      {"sequence": "GTTCAATCGGGTGTTACTTCAAACAAGGAACAACAA [TGCATGCA_negctrl_site471]", "gcPBM binding intensity (ln)": "7.76 ± 0.46"},
      {"sequence": "ACTTGACACCAACACACACACATATATAAAAAAAAA [CACACA_site756]", "gcPBM binding intensity (ln)": "8.32 ± 0.18"},
      {"sequence": "TATTTTATTGTTGTTATACACACCATATAAAATATT [CACACA_site1630]", "gcPBM binding intensity (ln)": "7.79 ± 0.54"},
      {"sequence": "TATATATCTGTGAAAATACTTAAATTGTTATAAAAA [CACACA_negctrl_site1109]", "gcPBM binding intensity (ln)": "7.62 ± 0.57"},
      {"sequence": "CGGCTATTTCTATATACATGCATTTAAAAAAAAAAT [TGCATGCA_site354]", "gcPBM binding intensity (ln)": "7.93 ± 0.35"},
      {"sequence": "ACCTATTTCAAACACACACACACACTAACAAACATA [CACACA_site8233]", "gcPBM binding intensity (ln)": "8.37 ± 0.39"},
      {"sequence": "AAAAAAAAAATGAGCACACATAAATAAAAACAAACA [CACACA_site1573]", "gcPBM binding intensity (ln)": "8.12 ± 0.47"},
      {"sequence": "AACATATATTAGCTTACATGCAAAAAGTAAAAAAAT [TGCATGCA_site10]", "gcPBM binding intensity (ln)": "8.05 ± 0.91"},
      {"sequence": "AAAACATCAAAAATGTGTACATATATATATATATAT [XGTACX_site8884]", "gcPBM binding intensity (ln)": "9.4 ± 0.68"},
      {"sequence": "ATATATATATATGCATGTACATATTTATCTTTATAT [XGTACX_site232]", "gcPBM binding intensity (ln)": "9.26 ± 0.15"},
      {"sequence": "AATTTAAAACGGAGATGTACATATATAAATATATAC [XGTACX_site3723]", "gcPBM binding intensity (ln)": "7.65 ± 0.54"},
      {"sequence": "ATGTGAACATTCAATGCACACGATGTAATTATACAT [CACACA_site15]", "gcPBM binding intensity (ln)": "9.44 ± 0.2"},
      {"sequence": "TTTTTAATATATATCACACATATATATTTTTAATTA [CACACA_site6099]", "gcPBM binding intensity (ln)": "7.66 ± 0.48"},
      {"sequence": "ATAAAAATCTTTAGTAGTACATTATAAAAAACTATT [XGTACX_site5531]", "gcPBM binding intensity (ln)": "7.71 ± 0.5"},
      {"sequence": "CTAATCGTGCACAACTGTACATTTGTCAAGGGCAAT [XGTACX_site8662]", "gcPBM binding intensity (ln)": "10.77 ± 0.028"},
      {"sequence": "TTTAAAAATATATATTGTACATATATATATCTATGA [XGTACX_site3556]", "gcPBM binding intensity (ln)": "7.42 ± 0.13"},
      {"sequence": "ATAAAAATTAAAAGGAGTACTTAAATATTAAGATGG [XGTACX_site4815]", "gcPBM binding intensity (ln)": "8.04 ± 0.12"},
      {"sequence": "TTTATTTAAAAAATAAAAAAAAAAAAAAAAAAAAAA [CACACA_negctrl_site1670]", "gcPBM binding intensity (ln)": "8.26 ± 0.88"},
      {"sequence": "TACTATTTAAAATTTGAACACACATTATTTATTTTA [CACACA_site9020]", "gcPBM binding intensity (ln)": "7.45 ± 0.54"},
      {"sequence": "TATACAATATATATAACACACATATTTATATAAAAT [CACACA_site5061]", "gcPBM binding intensity (ln)": "7.75 ± 0.29"},
      {"sequence": "AACATAAAAATTGAAGCACACACACTAATGAAATAC [CACACA_site8287]", "gcPBM binding intensity (ln)": "8.68 ± 0.54"},
      {"sequence": "ACAAATCTATAAGAGTGTACGAACAGTAAAGGAATT [XGTACX_site2070]", "gcPBM binding intensity (ln)": "8.28 ± 0.81"},
      {"sequence": "CAGTTGGAAGGAAAGTGTACATAAAAAAAAATATAA [XGTACX_site8784]", "gcPBM binding intensity (ln)": "8.2 ± 0.64"},
      {"sequence": "AAAATACCATTTGAAACACACAAAAAAAAAAAAAAT [CACACA_site2981]", "gcPBM binding intensity (ln)": "7.58 ± 0.5"},
      {"sequence": "ATATTATATATATACACACACACATGCATGCACATA [CACACA_site7917]", "gcPBM binding intensity (ln)": "9.05 ± 0.56"},
      {"sequence": "TATTTTCTCGTTTGCATGCACCTTATTTTATGTGGT [GTGCAC_site9470]", "gcPBM binding intensity (ln)": "9.53 ± 0.38"}
    ]}
  ]
}
